Measured values published in paper PMC6325239 (Nature Communications, 2019).

Tests used:
[1] = target: T1, Syx1 (residues 1–261), co-expressed with Munc18-1 (rat, UniProt P32851); experiment: native gel or EMSA; native PAGE with immunoblotting: 2 µM Munc18-1/Syx1 (1–261) complex with 10 µM SN25, 10 µM Syb2 (29–96) and 30 µM MUN, 30 °C, 1 h; SNARE complex forms only with all components; details: both partners purified
T1 construct: syntaxin-1 (Syx1), rat, residues 1-261; also called syntaxin-1; source: E. coli BL21 DE3, co-expressed with Munc18-1 from pETDuet-1, purified

[2] = target: T2, co-expressed Munc18-1/Syx1 (residues 1–261) complex (rat, UniProt P61765; P32851); experiment: pull-down; 2 µM GST-Syb2 or mutants and 3 µM Munc18-1/Syx1 (1–261) complex, with 3 µM MUN, glutathione Sepharose 4B, 4 °C, 3 h; immunoblot for Munc18-1; details: both partners purified
T2 construct: Munc18-1, rat; syntaxin-1 (Syx1), rat, residues 1-261; also called Munc18-1/Syx1 complex; source: E. coli BL21 DE3, co-expressed from pETDuet-1, purified

Row | binding result [1] | binding result [2] | Binder
1 | binds | – | Syb2 cytoplasmic domain ([…]) (domain or fragment, synaptobrevin-2 (Syb2), rat, cytoplasmic domain […]; also called synaptobrevin-2; source: E. coli BL21 DE3, pGEX-KG, purified) not shown
2 | – | binds | GST-Syb2 ([…]) (domain or fragment, synaptobrevin-2 (Syb2), rat, […]; also called isolated Syb2; source: E. coli BL21 DE3, pGEX-KG, purified (eluted with glutathione)) not shown
